According to US5298490A, “Tetra and penta-peptides useful in regulating the immune system” (Immunobiology Research Institute, Inc., priority 1990, dated 1994):
At least one peptide structure holds a part that was inferred or is arguable (an end, a ring closure or a residue). Ends that are not written are not given here. Peptide text beside a SMILES is read from it.

Test system: MOLT-4 cells
Test: Cyclic GMP assay in MOLT-4 cells
Type: cell-based, human
Conditions: for cGMP Concentration: Table I; for activity in cGMP dose-response curves (FIG. 1): evaluated from 1 to 1000 μgs/ml in MOLT-4 cells
Text: This assay measures the ability of a peptide of this invention to bind to the cell membrane receptor of the intact MOLT-4 cell and selectively stimulate production of cyclic GMP, as does human thysplenin and human thymopentin.
The MOLT-4 cell line was obtained from the American Type Culture Collection of Rockville, Md. MOLT-4 cells were freshly seeded and grown for 3 days with harvesting as described in T. Audhya et al, Arch. Biochem Biophys., 234: 167-177 (1984). The cells were washed 3 times in PBS and resuspended in RPMI 1640 at a concentration of 1.0×10^7 cells/ml and were allowed to equilibrate at 37° C. for 30 minutes before the addition of the test tetrapeptides and pentapeptides (25 ul) and control peptides. The incubation was allowed to proceed in a shaking water bath for 4-5 minutes and was then terminated by addition of 1 ml ice-cold TCA (10 percent).
The cells in TCA were homogenized and sonicated to release cyclic nucleotide. The suspension was centrifuged at 3000×g for 20 minutes at 4° C. The resulting precipitate was dissolved in 0.1N NaOH to determine the protein content. TCA was removed from the supernatant fraction by extracting 4 times with 5 ml of water-saturated diethyl ether. After the final extraction, the remaining traces of ether were removed by heating for 10 minutes in a 50° C. water bath. After lyophilization the sample was reconstituted in 50 mM acetate buffer (pH 6.2) for radioimmunoassay of cyclic GMP.
A threshold activity was determined for each peptide tested. This is defined as the lowest concentration of the test peptide which induced an intracellular level of cyclic GMP greater than two standard deviations above the control. The controls had intracellular cyclic GMP values of less than 0.5 picomoles/ml (mean±standard deviation). Test results were considered positive if the level of cyclic GMP was greater than 2 times (2 standard deviations) that determined for the parallel negative control.

[1] = peptide concentration 100 μg/ml
[2] = peptide concentration 1000 μg/ml

CC(=O)N[C@@H](CCCNC(=N)N)C(=O)N1CCC[C@H]1C(=O)N[C@@H](CCC(=O)O)C(=O)N[C@H](C(=O)O)C(C)C [Acetyl-Arg--Pro--Glu--Val, Acetyl-Arg-Pro-Glu-Val] (Ac-RPEV-OH)
cGMP Concentration (peptide concentration 1 μg/ml): 4.1 picograms/ml
cGMP Concentration (peptide concentration 10 μg/ml): 11.9 picograms/ml
cGMP Concentration [1]: 7.9 picograms/ml
cGMP Concentration [2]: 30.8 picograms/ml

CC(C)[C@H](NC(=O)[C@H](CC(=O)O)NC(=O)[C@H](CCCCN)NC(=O)[C@H](C)N)C(=O)O [Ala-Lys-Asp-Val, reference compound] (H-AKDV-OH)
activity in cGMP dose-response curves (FIG. 1): inactive

N=C(N)NCCC[C@H](N)C(=O)NCC(=O)N[C@@H](CC(=O)O)C(=O)N[C@@H](CO)C(=O)O [Arg--Gly--Asp--Ser, reference compound]
cGMP Concentration (peptide concentration 1 μg/ml): 0.71 picograms/ml
cGMP Concentration (peptide concentration 10 μg/ml): 0.50 picograms/ml
cGMP Concentration [1]: 0.68 picograms/ml
cGMP Concentration [2]: 0.58 picograms/ml

CC(C)[C@H](NC(=O)[C@H](CC(=O)O)NC(=O)[C@@H]1CCCN1C(=O)[C@@H](N)CCCNC(=N)N)C(N)=O [Arg--Pro--Asp--Val--NH2, Arg-Pro-Asp-Val-NH2] (H-RPDV-NH2)
cGMP Concentration (peptide concentration 1 μg/ml): 0.1 picograms/ml
cGMP Concentration (peptide concentration 10 μg/ml): 17.1 picograms/ml
cGMP Concentration [1]: 19.3 picograms/ml
cGMP Concentration [2]: 24.8 picograms/ml

CC(C)[C@H](NC(=O)[C@H](CC(=O)O)NC(=O)[C@H](CCCNC(=N)N)NC(=O)[C@@H](N)CCCCN)C(=O)O [Lys--Arg--Asp--Val, reference compound] (H-KRDV-OH)
cGMP Concentration (peptide concentration 1 μg/ml): 0.44 picograms/ml
cGMP Concentration (peptide concentration 10 μg/ml): 0.43 picograms/ml
cGMP Concentration [1]: 0.44 picograms/ml
cGMP Concentration [2]: 0.39 picograms/ml

CC(C)[C@H](NC(=O)[C@H](CC(=O)O)NC(=O)[C@H](CCCCN)NC(=O)[C@@H](N)CCCCN)C(N)=O [Lys--Lys--Asp--Val--NH2, Lys-Lys-Asp-Val-NH2, reference compound] (H-KKDV-NH2)
cGMP Concentration (peptide concentration 1 μg/ml): 0.33 picograms/ml
cGMP Concentration (peptide concentration 10 μg/ml): 0.31 picograms/ml
cGMP Concentration [1]: 0.34 picograms/ml
cGMP Concentration [2]: 0.33 picograms/ml
activity in cGMP dose-response curves (FIG. 1): inactive

RKAVY [Arg-Lys-Ala-Val-Tyr, reference compound]
activity on MOLT-4 cells: inactive

RPAVY [Arg--Pro--Ala--Val--Tyr, Arg-Pro-Ala-Val-Tyr]
cGMP Concentration (peptide concentration 1 μg/ml): 0.09 picograms/ml
cGMP Concentration (peptide concentration 10 μg/ml): 16.41 picograms/ml
cGMP Concentration [1]: 27.90 picograms/ml
cGMP Concentration [2]: 37.14 picograms/ml
activity in cGMP dose-response curves (FIG. 1): active

RPAVY-NH2 [Arg--Pro--Ala--Val--Tyr--NH2, Arg-Pro-Ala-Val-Tyr-NH2]
cGMP Concentration (peptide concentration 1 μg/ml): 3.71 picograms/ml
cGMP Concentration (peptide concentration 10 μg/ml): 14.15 picograms/ml
cGMP Concentration [1]: 12.83 picograms/ml
cGMP Concentration [2]: 12.57 picograms/ml
